The list shows a part of the results. The full chains were built here from the parent and the listed change. Inactive controls read about 0.05.
B1: TEV protease; numbered along this chain (parent)
chain: MGESLFKGPRDYNPISSSICHLTNESDGHTTSLYGIGFGPFIITNKHLFRRNNGTLVVQSLHGVFKVKDTTTLQQHLVDGRDMIIIRMPKDFPPFPQKLKFREPQREERICLVTTNFQTKSMSSMVSDTSCTFPSGDGIFWKHWIQTKDGQCGSPLVSTRDGFIVGIHSASNFTNTNNYFTSVPKNFMELLTNQEAQQWVSGWRLNADSVLWGGHKVFMVKPEEPFQPVKEATQL

Variants of: B1
Test: raw area under fraction-flipped curve 0-4 h after induction (AUC4h, not background-subtracted), DNA-recorder readout of cleavage of the substrate (dimensionless); higher = more cleavage of the substrate by the protease variant
Conditions: temperature: 34 °C; time window: 0-4 h after rhamnose induction
Method: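 In vivo DNA recorder in E. coli TOP10(DE3) ΔrhaA at 34 °C. Each TEVp single-site mutant (parent TEVp 0) is paired with a single-site variant of the 7-mer TEVs (canonical ENLYFQ|S). The substrate sits between flexible linkers in a Bxb1-sfGFP-TEVs-SsrA fusion, so cleavage stabilises Bxb1 and speeds flipping of a recombination array, read by NGS. The value is the raw area under the fraction-flipped curve over 0-4 h after rhamnose induction (AUC4h), with ≥20 reads per time point. It is not background-subtracted; inactive controls average about 0.047.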
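Note: Bxb1 expression induced with 0.2% (w/v) L-rhamnose at OD600 near 0.5, cultures sampled hourly, flipped fraction per protease–substrate barcode pair counted by paired-end Illumina sequencing.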

Variant | area with substrate GNLYFQS | area with substrate HNLYFQS | area with substrate KNLYFQS | area with substrate LNLYFQS | area with substrate TNLYFQS | area with substrate INLYFQS | area with substrate MNLYFQS | area with substrate NNLYFQS | area with substrate PNLYFQS | area with substrate VNLYFQS
MGESLFKGPRDYNPISSSICHLTNESDGHTTSLYGIGFGPFIITNKHLFRRNNGTLVVQSLHGVFKVKDTTTLQQHLVDGRDMIIIRMPKDFPPFPQKLKFREPQREERICLVTTNFQTKSMSSMVSDTSCTFPSGDGIFWKHWIQTKDGQCGSPLVSTRDGFIVGIHSASNFTNTNNYFESVPKNFMELLTNQEAQQWVSGWRLNADSVLWGGHKVFMVKPEEPFQPVKEATQL [T181E] | 0.0479 | 0.0589 | 0.0474 | 0.0603 | 0.0547 | – | – | – | – | –
MGESLFKGPRDYNPISSSICHLTNESDGHTISLYGIGFGPFIITNKHLFRRNNGTLVVQSLHGVFKVKDTTTLQQHLVDGRDMIIIRMPKDFPPFPQKLKFREPQREERICLVTTNFQTKSMSSMVSDTSCTFPSGDGIFWKHWIQTKDGQCGSPLVSTRDGFIVGIHSASNFTNTNNYFTSVPKNFMELLTNQEAQQWVSGWRLNADSVLWGGHKVFMVKPEEPFQPVKEATQL [T31I] | 0.0728 | 0.0785 | – | 0.073 | 0.0659 | 0.0738 | 0.0917 | 0.0699 | 0.0739 | 0.0831
MGESLFKGPRDYNPISSSICHLTNESDGHTTSLYGIGFGPFIITNKHLFRRNNGTLVVQSLHGVFKVKDTTTLQQHLVDGRDMIIIRMPKDFPPFPQKLKFREPQREERICLVTTNFQTKSMSSMVSDTSCTFPSGDGIFWNHWIQTKDGQCGSPLVSTRDGFIVGIHSASNFTNTNNYFTSVPKNFMELLTNQEAQQWVSGWRLNADSVLWGGHKVFMVKPEEPFQPVKEATQL [K142N] | – | 0.0737 | 0.0686 | 0.0809 | – | 0.056 | 0.0745 | – | 0.0643 | –
MGEALFKGPRDYNPISSSICHLTNESDGHTTSLYGIGFGPFIITNKHLFRRNNGTLVVQSLHGVFKVKDTTTLQQHLVDGRDMIIIRMPKDFPPFPQKLKFREPQREERICLVTTNFQTKSMSSMVSDTSCTFPSGDGIFWKHWIQTKDGQCGSPLVSTRDGFIVGIHSASNFTNTNNYFTSVPKNFMELLTNQEAQQWVSGWRLNADSVLWGGHKVFMVKPEEPFQPVKEATQL [S4A] | 0.079 | 0.0652 | 0.0754 | 0.0673 | 0.0518 | – | – | – | 0.0784 | –
MGESLFKGPRDYNPISSSICHLTNESDGHTTSLYGIGFGPFIITNKHLFRRNNGTLVVQSLHGVFKVKDTTTLQQHLVDGPDMIIIRMPKDFPPFPQKLKFREPQREERICLVTTNFQTKSMSSMVSDTSCTFPSGDGIFWKHWIQTKDGQCGSPLVSTRDGFIVGIHSASNFTNTNNYFTSVPKNFMELLTNQEAQQWVSGWRLNADSVLWGGHKVFMVKPEEPFQPVKEATQL [R81P] | 0.111 | – | – | 0.0719 | – | – | – | – | – | –
MGESLFKGPRDYNPISSSICHLTNESDGHTTSLYGIGFGPFIITNKHLFRRNNGTLVVQSLHGVFKVKDTTTLQQHLVDGRDMIIIRMPKDFPPFPQKLKFREPQREERICLVTTNFQTKSMSSMVSDTSCTFPSGDGIFWKHWIQTKDGQCGSPLVSTRDGFIVGIHSASNFTNTNNYFTSVPKNFMELLTNQEAQQWVSGWRLNADSVIWGGHKVFMVKPEEPFQPVKEATQL [L211I] | 0.08 | – | – | – | – | – | – | – | – | –
MGESLFKGPRDYNPISSSICHLTNESDGHTTSLYGIGFGPFIITNKHLFRRNNGTLVVQSLHGVFKVKDTTTLQQHLVDGRDMIIIRMPKDFPPFPQKLKFREPQREERICLVTTNFQTKSMSSMVSDTSCTFPSGDGIFWKHWIQTKDGQCGSPLVSTRDGFIVGIHSASNFTNTNNYFTSVPKNFMELLTNQEAQQWVSGWRLNADSVNWGGHKVFMVKPEEPFQPVKEATQL [L211N] | 0.0601 | 0.125 | – | 0.0686 | 0.0647 | 0.0814 | – | 0.0463 | 0.0692 | –
MGESLFKGPRDYNPISSSICHLTNESDGHTTSLYGIGFGPFIITNKHLFRRNNGTLVVQSLHGVFKVKDTTTLQQHLVDGRDMIIIRMPKDFPPFPQKLKFREPQREERICLVTTNFQTKSMSSMVSDTSCTFPSGDGIFWKHWIQTKDGQCGSPLVSTRDGFIVGIHSASNFTNTNNYFTSVPKNFMELLTNQEAQQWVSGWRLNADSVLWGGHKVFMVKTEEPFQPVKEATQL [P222T] | 0.0709 | 0.0448 | 0.0461 | – | 0.0722 | – | 0.0866 | – | – | –
MGESLFKGPRDYNPISSSICHLTNESDGHTTSLYGIGFGPFIITNKHLFRRNNGTLVVQSLHGVFKVKDTTTLQQHLVDGRDMIIIRMPKDFPPFPQKLKFREPQREERICLVTTNFQTKSMSSMVSDTSCTFPSGDGIFWKHWIQTKDGQCGSPLVSTRDGFIVGIHSASNFTNTNNYFTSVPKNFMELQTNQEAQQWVSGWRLNADSVLWGGHKVFMVKPEEPFQPVKEATQL [L191Q] | 0.0538 | – | – | – | 0.04 | 0.0516 | 0.0645 | 0.0604 | 0.0507 | –
MGESLFKGPRDYNPISSSICHLTNESDGHTTSLYGIGFGPFIITNKHLFRRNNGTLVVQSLHGVFKVKDTTTLQQHLVDGRDMIIIRMPKDFPPFPQKKKFREPQREERICLVTTNFQTKSMSSMVSDTSCTFPSGDGIFWKHWIQTKDGQCGSPLVSTRDGFIVGIHSASNFTNTNNYFTSVPKNFMELLTNQEAQQWVSGWRLNADSVLWGGHKVFMVKPEEPFQPVKEATQL [L99K] | 0.0612 | – | 0.0585 | – | 0.0532 | – | – | 0.0683 | – | –

Same assay, conditions: temperature: 34 °C; time window: 0-4 h after rhamnose induction

Variant | area with substrate WNLYFQS | area with substrate YNLYFQS | area with substrate QNLYFQS | area with substrate RNLYFQS | area with substrate SNLYFQS
MGESLFKGPRDYNPISSSICHLTNESDGHTISLYGIGFGPFIITNKHLFRRNNGTLVVQSLHGVFKVKDTTTLQQHLVDGRDMIIIRMPKDFPPFPQKLKFREPQREERICLVTTNFQTKSMSSMVSDTSCTFPSGDGIFWKHWIQTKDGQCGSPLVSTRDGFIVGIHSASNFTNTNNYFTSVPKNFMELLTNQEAQQWVSGWRLNADSVLWGGHKVFMVKPEEPFQPVKEATQL [T31I] | 0.0576 | 0.0686 | – | – | –
MGESLFKGPRDYNPISSSICHLTNESDGHTTSLYGIGFGPFIITNKHLFRRNNGTLVVQSLHGVFKVKDTTTLQQHLVDGRDMIIIRMPKDFPPFPQKLKFREPQREERICLVTTNFQTKSMSSMVSDTSCTFPSGDGIFWNHWIQTKDGQCGSPLVSTRDGFIVGIHSASNFTNTNNYFTSVPKNFMELLTNQEAQQWVSGWRLNADSVLWGGHKVFMVKPEEPFQPVKEATQL [K142N] | 0.0576 | – | 0.0832 | 0.0732 | –
MGEALFKGPRDYNPISSSICHLTNESDGHTTSLYGIGFGPFIITNKHLFRRNNGTLVVQSLHGVFKVKDTTTLQQHLVDGRDMIIIRMPKDFPPFPQKLKFREPQREERICLVTTNFQTKSMSSMVSDTSCTFPSGDGIFWKHWIQTKDGQCGSPLVSTRDGFIVGIHSASNFTNTNNYFTSVPKNFMELLTNQEAQQWVSGWRLNADSVLWGGHKVFMVKPEEPFQPVKEATQL [S4A] | 0.0539 | 0.0231 | – | – | –
MGESLFKGPRDYNPISSSICHLTNESDGHTTSLYGIGFGPFIITNKHLFRRNNGTLVVQSLHGVFKVKDTTTLQQHLVDGRDMIIIRMPKDFPPFPQKLKFREPQREERICLVTTNFQTKSMSSMVSDTSCTFPSGDGIFWKHWIQTKDGQCGSPLVSTRDGFIVGIHSASNFTNTNNYFTSVPKNFMELLTNQEAQQWVSGWRLNADSVIWGGHKVFMVKPEEPFQPVKEATQL [L211I] | 0.0712 | – | 0.0657 | – | 0.0603
MGESLFKGPRDYNPISSSICHLTNESDGHTTSLYGIGFGPFIITNKHLFRRNNGTLVVQSLHGVFKVKDTTTLQQHLVDGRDMIIIRMPKDFPPFPQKLKFREPQREERICLVTTNFQTKSMSSMVSDTSCTFPSGDGIFWKHWIQTKDGQCGSPLVSTRDGFIVGIHSASNFTNTNNYFTSVPKNFMELLTNQEAQQWVSGWRLNADSVNWGGHKVFMVKPEEPFQPVKEATQL [L211N] | 0.0604 | 0.0886 | 0.0872 | – | 0.0689
MGESLFKGPRDYNPISSSICHLTNESDGHTTSLYGIGFGPFIITNKHLFRRNNGTLVVQSLHGVFKVKDTTTLQQHLVDGRDMIIIRMPKDFPPFPQKLKFREPQREERICLVTTNFQTKSMSSMVSDTSCTFPSGDGIFWKHWIQTKDGQCGSPLVSTRDGFIVGIHSASNFTNTNNYFTSVPKNFMELLTNQEAQQWVSGWRLNADSVLWGGHKVFMVKTEEPFQPVKEATQL [P222T] | 0.0766 | – | – | – | –
MGESLFKGPRDYNPISSSICHLTNESDGHTTSLYGIGFGPFIITNKHLFRRNNGTLVVQSLHGVFKVKDTTTLQQHLVDGRDMIIIRMPKDFPPFPQKLKFREPQREERICLVTTNFQTKSMSSMVSDTSCTFPSGDGIFWKHWIQTKDGQCGSPLVSTRDGFIVGIHSASNFTNTNNYFTSVPKNFMELQTNQEAQQWVSGWRLNADSVLWGGHKVFMVKPEEPFQPVKEATQL [L191Q] | 0.0493 | 0.0327 | 0.0548 | – | –
MGESLFKGPRDYNPISSSICHLTNESDGHTTSLYGIGFGPFIITNKHLFRRNNGTLVVQSLHGVFKVKDTTTLQQHLVDGRDMIIIRMPKDFPPFPQKKKFREPQREERICLVTTNFQTKSMSSMVSDTSCTFPSGDGIFWKHWIQTKDGQCGSPLVSTRDGFIVGIHSASNFTNTNNYFTSVPKNFMELLTNQEAQQWVSGWRLNADSVLWGGHKVFMVKPEEPFQPVKEATQL [L99K] | – | – | – | – | 0.0388

Source: the supplement of paper PMC12217912
